Hit rate of the full screen: of about 48,000 compounds, about 1,200 (2.5%) were called active. About 2% were inconclusive and are not listed.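 How the source made its calls: active means activation of at least 60% and not above a set upper limit (about 1 call in 100 departs from these limits); inconclusive means activation of 40% to 60%, or above that upper limit; inactive means activation under 40%.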 The list shows a part of the results.
target: Probable G-protein coupled receptor 32 (Homo sapiens) (UniProt O75388); assay: qHTS for Agonists of Human Resolvin D1 Receptor DRV1; conditions: CHO-K1 GPR32 beta-arrestin PathHunter luminescence, 90 min; at 76.9 µM; active compounds read high; zero percent set by DMSO-only wells; further: 0% is about no effect
Sequence of UniProt O75388 (O75388 whole entry, looked up): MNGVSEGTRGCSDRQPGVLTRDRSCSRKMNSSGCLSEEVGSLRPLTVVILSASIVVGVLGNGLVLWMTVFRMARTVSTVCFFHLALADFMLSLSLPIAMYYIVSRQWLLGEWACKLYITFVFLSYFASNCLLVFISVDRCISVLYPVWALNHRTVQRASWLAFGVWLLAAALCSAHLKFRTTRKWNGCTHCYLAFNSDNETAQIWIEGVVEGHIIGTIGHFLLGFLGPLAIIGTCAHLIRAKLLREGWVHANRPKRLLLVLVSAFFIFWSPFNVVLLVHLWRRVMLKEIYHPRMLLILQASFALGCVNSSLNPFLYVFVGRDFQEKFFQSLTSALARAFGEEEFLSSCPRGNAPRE
Method in brief: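 Step 1: seed CHO-K1 GPR32 beta-arrestin cells, 2,500/well, overnight at 37 °C. Step 2: add compounds, 90 min at 37 °C. Step 3: detection reagent, 1 h ambient, then luminescence.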

activation, inactive:
CCC(=O)Nc1ccc(C)cc1-c1nc2ccccc2n(CC(=O)Nc2ccccc2Cl)c1=O -1.54%, COc1cc(OC)cc(C(=O)Nc2ccc3oc(-c4ccccc4C)nc3c2)c1 -1.83%, CC(C)CNc1nc(NC(C)(C)C)nc(Oc2ccc(=O)n(-c3ccccc3)n2)n1 -19.1%, COc1cccc(-c2cc(C(=O)Nc3cc(C)nn3-c3ccccc3)no2)c1 -3.27%, CCN(CC)S(=O)(=O)c1nnc(NC(=O)c2ccccc2Cl)s1 28.3%, Cc1ccccc1NC(=O)c1c(C)oc2ccc(O)c(CN3CCCC3)c12 4.32%, COc1cc(Cl)c(C)cc1NC(=O)Cn1ncc2c(=O)oc3ccccc3c21 -3.26%, COc1cc(NC(=O)C2CCCN(S(=O)(=O)c3ccc4c(c3)CCCC(=O)N4)C2)cc(OC)c1 (stereo unspecified) -3.17%, O=c1[nH]c2ccccc2c(=O)n1CCCl -3.64%, CCC(C(=O)OC)n1cnc2c(cnn2-c2ccc(F)cc2)c1=O (stereo unspecified) 5.2%, COc1ccc(-c2nc(SCC(=O)c3ccc(OC)c(Br)c3)n[nH]2)cc1 2.78%, CCC(Sc1nc2nccnc2c(=O)n1Cc1ccc(F)cc1)C(=O)NC1CCCCC1 (stereo unspecified) -17.9%, CCCC(=O)O[C@]1(C(=O)CO)CC[C@H]2[C@@H]3CCC4=CC(=O)CC[C@]4(C)[C@H]3[C@@H](O)C[C@@]21C 0.756%, CSc1ncc(Cl)c(C(=O)Nc2ccc(S(=O)(=O)N3CCCC(C)C3)cc2)n1 (stereo unspecified) -30.5%, CCOc1cccc(C2c3[nH]c4ccccc4c3CCN2C(=O)CCC2CCCC2)c1 (stereo unspecified) -35.5%, CCc1cccc(NC(=O)C2CCC(CNS(=O)(=O)c3csc(C(N)=O)c3)CC2)c1 (stereo unspecified) 8.48%, CCc1ccc(CNC(=O)c2cnc3sc(N4CCCCC4)nn3c2=O)cc1 25.1%, CC(C)(C)OC(=O)N1CCC(c2c(C(=O)NCc3ccco3)cnn2-c2ccccc2)CC1 -21.3%, CCOc1ccc(S(=O)(=O)c2cn(Cc3ccccc3)c3ccc(OCC)cc3c2=O)cc1 -17.1%, CCc1ccc(S(=O)(=O)Nc2cccc(-c3ccc(N4CCC(C)CC4)nn3)c2)s1 6.06%, Cc1cc(NC(=O)NCc2ccc3c(c2)CCN3C(=O)c2ccccc2)ccc1Br -15.1%, Cc1cc(=O)n2nc(N3CCC(C(=O)NCc4ccccc4)CC3)sc2n1 -23.2%, Cc1ccc(NC(=O)Cn2cnc3nc4c(cc3c2=O)CCCC4)cc1Cl -12.6%, COc1ccc(C(=O)Nc2ccc(OCc3cc(=O)n4ccsc4n3)cc2)cc1OC -1.4%, Cc1cccc(C(=O)NC(=O)Nc2ccc(-c3cc(C(F)(F)F)nn3-c3ccccc3)cc2)c1 -11.6%, CCn1c(=O)cc(SCC(=O)NCc2ccccc2OC)c2ccccc21 38.3%, COc1ccc2cc(C(=O)NCc3ccc4c(c3)CCN4C(=O)c3ccccc3)[nH]c2c1 -3.04%, O=C(Cn1cc(C(=O)c2ccco2)c2ccccc21)Nc1ccccc1Cl 36.9%, O=C(NCc1cccnc1)C(=O)NCC(c1cccnc1)N1CCN(c2ccccc2F)CC1 (stereo unspecified) 4.44%, CCOC(=O)c1sc2ccccc2c1S(=O)(=O)N1CCN(c2cccc(C)c2C)CC1 -5.94%, CCOC(=O)c1sc2ccccc2c1S(=O)(=O)N1CCN(c2cccc(OC)c2)CC1 -15.5%, Cc1cc(C)c2c(=O)cc(C(=O)Nc3ccc(S(=O)(=O)N(C)Cc4ccccc4)cc3)oc2c1 -5.15%, O=C(C1CCN(S(=O)(=O)c2cccc3nonc23)CC1)N1CCN(c2ccccc2F)CC1 20.1%, Cc1cccc(N2CC(C)Cn3c2nc2c3c(=O)n(CC(=O)O)c(=O)n2C)c1 (stereo unspecified) -1.63%, Cc1ccc(-n2nc(C)c3c(C(=O)NCc4ccc(F)cc4)cc(C)nc32)cc1 -10.2%, O=C(Nc1ccc(F)cc1F)c1cc2c(=O)n3ccccc3nc2s1 15.1%, CCOc1cc(CNC(=O)c2ccc3c(c2)N(C)C(=O)C2CCCCN32)cc(OCC)c1OCC (stereo unspecified) -9.55%, CCc1cccc(NC(=O)CCc2nc3cccnc3n2-c2ccccc2)c1 6.73%, COCCNC(=O)c1cccc(Nc2nc3ccccc3n3nnnc23)c1 9.37%, CSc1ccc(CCNC(=O)c2ccc(CS(=O)(=O)c3ccc(Br)cc3)o2)cc1 12.6%, CCOC(=O)N1CCc2c(sc(NCc3ccc(N(C)C)cc3)c2C(=O)Nc2ccc(OC)cc2)C1 7.63%, COc1ccc(NC(=O)CSc2nc(-c3cccs3)cc(C(F)(F)F)c2C#N)cc1 5.03%, Cc1c(Cl)cccc1N1C(N)=C(C#N)C(c2cc(CN3CCOCC3)cs2)C2=C1CCCC2=O (stereo unspecified) -16.7%, O=c1c2sc3ccccc3c2n(Cc2cccc(C(F)(F)F)c2)c(=O)n1Cc1ccccc1 -8.79%, COc1ccc(NC(=O)CCc2c(C)nc3c(c2C)c(=O)n(C)c(=O)n3C)cc1OC -7.37%, O=C1N(Cc2cccc(C(F)(F)F)c2)c2ccccc2S(=O)(=O)N1c1cccc(Cl)c1 -18.5%, CCN(CC)C(=O)CSc1nc2cc3c(cc2c(=O)n1CCCCCC(=O)NCCc1ccc(OC)c(OC)c1)OCO3 -12.7%, N#Cc1c(C(F)(F)F)cc(-c2cccs2)nc1SCC(=O)Nc1ccc(F)cc1 40.8%, Cc1cc(F)ccc1NC(=O)CN(C)S(=O)(=O)c1ccc(C(=O)N2CCOCC2)s1 -19.2%, COCCNC(=O)CCc1c(C)nc2c(c(C)nn2-c2ccc(C)cc2)c1C -23.9%, CCOc1ccc(NC(=O)c2c(NCc3sccc3C)sc3c2CCCCC3)cc1 -15.2%, COc1ccc(CNC(=O)c2ccc3c(c2)N(Cc2ccccc2F)C(=O)c2ccccc2S3(=O)=O)cc1 -0.45%, CCCN(CCC)c1nc(-c2ccccc2F)nc2ccccc12 47.6%, COc1ccc(OCc2ccc(-c3nc(C#N)c(N4CCN(c5cccc(Cl)c5)CC4)o3)o2)cc1 0.778%, O=C(COc1ccc([N+](=O)[O-])cc1)Nc1cccc2cccnc12 27.7%, CCc1ccccc1NC(=O)CSC1=Nc2ccccc2C2=NC(Cc3ccccc3)C(=O)N12 (stereo unspecified) -19.2%, O=C(CSc1nc2c([nH]c3ccccc32)c(=O)n1-c1ccc(F)cc1)NC1CCCCC1 -29.9%, Cc1ccc(-c2nc3nc(C)cc(C)n3c2Nc2ccc3c(c2)OCCO3)cc1 -20.7%, CC(=O)N1CCc2cc(Br)cc(S(=O)(=O)N3CCC(C)CC3)c21 -2.68%, CC(C)c1cnc2c(c1SCc1cccc(F)c1)c(=O)n(C)c(=O)n2C -34.7%, CC(=O)c1ccc(NC(=O)c2nc(-c3ccccc3)n(-c3ccc(Cl)cc3)n2)cc1 -15.8%, CCOc1ccc(NC(=O)Cn2c(=O)n(Cc3nc(-c4ccccc4)no3)c(=O)c3cc4c(cc32)OCO4)cc1 -10.9%, Cc1nc2nc(NC(=O)C(C)(C)C)[nH]n2c(=O)c1Cc1ccccc1 13.5%, CCOC(=O)c1cc2c(=O)n3ccccc3nc2n(CCOC)c1=NC(=O)C(C)(C)Oc1ccc(Cl)cc1 -29.3%, O=c1[nH]c(=O)n([C@H]2C[C@H](O)[C@@H](CO)O2)cc1C(F)(F)F -55.6%, Cc1ccc(Cn2ccn(CC(=O)Nc3c(C)cc(C)cc3C)c(=O)c2=O)cc1 -0.641%, CCCCN(C)CCCNC(=O)Cn1ncc2c3ccccc3n(Cc3ccccc3F)c2c1=O -6.68%, COc1ccc(NC(=O)Cn2c(=O)oc3cc(S(=O)(=O)NCc4ccccc4)ccc32)c(OC)c1 3.37%, Cc1noc(-c2ccc(N3CCC(C)CC3)c([N+](=O)[O-])c2)n1 6.98%, COc1cc(NC(=O)C2CCN(S(=O)(=O)c3ccc4c(c3)oc(=O)n4C)CC2)cc(OC)c1 22.7%, O=C(CSC1=Nc2ccccc2C2=NC(Cc3ccccc3)C(=O)N12)Nc1ccccc1C(F)(F)F (stereo unspecified) -18.2%, COc1ccc(NS(=O)(=O)c2cc3c(cc2C)NC(=O)CO3)c(OC)c1 -7.27%, Cc1cccc(CNC(=O)c2oc3c(c2C)-c2nn(Cc4cccc(Cl)c4)cc2CC3)c1 -9.27%, Cc1cn2c(=O)cc(COc3ccccc3NC(=O)c3ccc(C(C)(C)C)cc3)nc2s1 20.9%, COC(=O)c1ccc2c(c1)N(CC(=O)Nc1cccc(Cl)c1C)C(=O)c1ccccc1S2 -3.16%, CC(C)NC(=O)Cn1c(=O)nc(-c2ccccc2F)c2cc(Cl)ccc21 -13.3%, CN(C)c1nc(N)c(C(=O)N=C(N)N)nc1Cl -0.54%, CCOc1ccc(CN2C(=O)c3ccccc3Sc3ccc(C(=O)NC)cc32)cc1 6.36%, Cc1ccc(C(c2ccccc2)c2c(C)[nH]c3ccccc23)s1 (stereo unspecified) -5.38%, Cc1ccc2nc(-c3c[nH]c4ccccc34)c(Nc3ccccc3C)n2c1 -8.84%, COc1cccc(NC(=O)Cn2c(=O)n(CC(=O)NCc3ccc(C)cc3)c(=O)c3sccc32)c1 -9.77%

Reference: PubChem BioAssay AID1346428 (National Center for Advancing Translational Sciences (NCATS), 2018)
